The other results are listed elsewhere or left out. Read counts after selection give these values, which scatter widely. Scores sum up all selected molecules that hold the word; the word was not tested alone.
Experiments:
Experiment in all cases: 6-mer SELEX enrichment z-score vs GST control; IMP3 is the RNA-binding protein IGF2BP3; higher = more enriched by binding
[1] = tested on: IMP3 KH1-4; settings: construct: KH1-4 (164-579); SELEX round: R4
Procedure: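 SELEX-seq with GST-tagged IMP3 KH1-4 (Pro164-Lys579) and an N40 RNA pool, round 4. 6-mer z-score of sequence-tag enrichment normalised to the corresponding GST SELEX round; RNA k-mers written as DNA (T for U).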

[2] = tested on: IMP3 RRM1-2; settings: construct: RRM1-2 (1-163); SELEX round: R2
Procedure: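 SELEX-seq with GST-tagged IMP3 RRM1-2 (Met1-Asn163) and an N40 RNA pool, round 2. 6-mer enrichment z-score normalised to GST SELEX. RNA written as DNA (T = U).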

[3] = biological target: IMP3 full-length (UniProt O00425); settings: construct: FL IMP3 (1-579); SELEX round: R4
Procedure: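 SELEX-seq with GST-tagged full-length IMP3 and an N40 RNA pool, round 4. Each 6-mer is scored as an enrichment z-score of sequence tags containing it, normalised to the matching GST SELEX round. RNA written as DNA (T = U).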

[4] = tested on: IMP3 KH1-2; settings: construct: KH1-2 (164-376); SELEX round: R4
Procedure: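 SELEX-seq with GST-tagged IMP3 KH1-2 (Pro164-Phe376) and an N40 RNA pool, round 4 (stringent 300/600 mM KCl washes). 6-mer z-score of sequence-tag enrichment normalised to the corresponding GST SELEX round; RNA k-mers written as DNA (T for U).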

[5] = tested on: IMP3 KH3-4; settings: construct: KH3-4 (377-579); SELEX round: R4
Procedure: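 SELEX-seq with GST-tagged IMP3 KH3-4 (Pro377-Lys579) and an N40 RNA pool, round 4. 6-mer z-score of sequence-tag enrichment normalised to the corresponding GST SELEX round; RNA k-mers written as DNA (T for U).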

Sequence of IMP3 KH1-4 (chain, as listed by the source): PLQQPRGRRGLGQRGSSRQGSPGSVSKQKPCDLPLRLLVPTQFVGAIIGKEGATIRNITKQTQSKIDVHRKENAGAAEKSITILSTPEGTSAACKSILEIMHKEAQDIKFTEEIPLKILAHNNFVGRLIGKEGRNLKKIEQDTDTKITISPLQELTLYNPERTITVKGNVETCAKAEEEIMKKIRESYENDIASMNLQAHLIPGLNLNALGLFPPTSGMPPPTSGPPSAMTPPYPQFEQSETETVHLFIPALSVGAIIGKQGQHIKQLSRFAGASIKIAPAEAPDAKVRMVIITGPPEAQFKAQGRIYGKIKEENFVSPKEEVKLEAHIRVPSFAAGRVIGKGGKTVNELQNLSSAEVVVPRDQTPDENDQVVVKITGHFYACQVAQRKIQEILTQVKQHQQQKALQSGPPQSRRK
Sequence of IMP3 RRM1-2 (chain, as listed by the source): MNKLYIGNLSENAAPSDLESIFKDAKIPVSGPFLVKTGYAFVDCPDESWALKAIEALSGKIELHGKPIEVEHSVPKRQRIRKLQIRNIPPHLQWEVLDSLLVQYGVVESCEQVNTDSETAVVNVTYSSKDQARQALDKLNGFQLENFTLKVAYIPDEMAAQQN
Sequence of IMP3 KH1-2 (chain, as listed by the source): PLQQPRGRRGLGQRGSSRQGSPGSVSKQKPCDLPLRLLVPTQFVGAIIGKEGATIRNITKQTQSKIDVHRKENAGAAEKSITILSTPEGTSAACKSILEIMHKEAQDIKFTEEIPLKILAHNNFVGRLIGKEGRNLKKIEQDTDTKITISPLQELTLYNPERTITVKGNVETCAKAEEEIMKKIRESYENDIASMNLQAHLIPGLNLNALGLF
Sequence of IMP3 KH3-4 (chain, as listed by the source): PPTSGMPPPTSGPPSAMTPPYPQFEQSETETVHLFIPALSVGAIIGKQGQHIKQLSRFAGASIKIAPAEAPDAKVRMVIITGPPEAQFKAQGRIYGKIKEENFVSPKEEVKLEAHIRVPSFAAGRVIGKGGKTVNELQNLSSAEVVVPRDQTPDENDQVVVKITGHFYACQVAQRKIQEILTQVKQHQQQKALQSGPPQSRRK
Sequence of UniProt O00425 (O00425 whole entry): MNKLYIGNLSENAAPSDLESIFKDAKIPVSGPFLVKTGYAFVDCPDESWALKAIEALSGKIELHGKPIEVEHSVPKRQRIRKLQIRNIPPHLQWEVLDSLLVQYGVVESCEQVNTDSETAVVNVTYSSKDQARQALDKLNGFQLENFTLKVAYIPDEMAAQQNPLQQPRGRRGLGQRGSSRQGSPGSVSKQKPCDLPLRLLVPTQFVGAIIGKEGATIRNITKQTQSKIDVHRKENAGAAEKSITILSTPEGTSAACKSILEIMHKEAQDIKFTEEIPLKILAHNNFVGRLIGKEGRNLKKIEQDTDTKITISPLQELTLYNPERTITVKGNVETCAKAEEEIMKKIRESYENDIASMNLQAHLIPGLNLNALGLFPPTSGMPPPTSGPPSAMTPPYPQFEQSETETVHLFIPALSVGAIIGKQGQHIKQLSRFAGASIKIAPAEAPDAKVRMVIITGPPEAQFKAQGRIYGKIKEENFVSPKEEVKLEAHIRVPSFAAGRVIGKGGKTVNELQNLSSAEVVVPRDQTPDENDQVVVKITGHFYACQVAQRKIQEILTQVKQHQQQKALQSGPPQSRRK

Sequence | 6-mer SELEX enrichment z-score [1] | 6-mer SELEX enrichment z-score [2] | 6-mer SELEX enrichment z-score [3] | 6-mer SELEX enrichment z-score [4] | 6-mer SELEX enrichment z-score [5]
TAAAAC | -0.259 | -1.57 | -1.62 | -0.127 | 0.438
GGTATG | 0.015 | 0.27 | 0.083 | 0.028 | 0.207
TTGAGT | -0.557 | 0.167 | -0.389 | -0.541 | -0.349
GTATGG | 0.42 | 0.233 | 0.262 | 0.334 | 0.528
GTGAGA | 0.576 | -0.597 | -0.118 | 0.425 | 0.594
TTGTTC | 0.411 | 0.355 | 0.134 | 0.279 | 0.361
CCTGCG | -1.9 | -0.286 | -1.06 | -1.7 | -1.81
CCAGCC | -0.607 | -0.601 | -0.426 | -0.561 | -1.33
AGACCA | -0.722 | -0.267 | -0.989 | -0.572 | -0.851
CTAGCC | -0.664 | -0.335 | -0.591 | -0.676 | -0.869
CCTCTG | -0.284 | -0.054 | -0.347 | -0.277 | -0.606
ACTCAA | -1.37 | 0.481 | -0.769 | -1.19 | -1.47
CACGCA | 1.38 | 1.84 | 2.02 | 1.3 | 0.459
CCTTCA | 0.604 | 0.931 | 0.6 | 0.661 | 0.077
AGAAAC | -0.293 | -1.16 | -1.03 | -0.165 | 0.221
CTTTGC | 0.171 | 0.185 | -0.109 | 0.115 | -0.015
GAGCCT | -1.36 | -0.537 | -0.663 | -1.2 | -1.2
CGGACC | -0.851 | -0.801 | -0.386 | -0.887 | -1.26
CTGCAA | 0.135 | -0.227 | 0.07 | 0.292 | -0.197
TGCGGT | 0.101 | 0.295 | 0.274 | 0.123 | 0.212
CTTGAG | -1.49 | -0.048 | -0.892 | -1.35 | -1.22
TCGGCA | 1.87 | 0.474 | 3.04 | 1.28 | 1.19
CCGAAA | -2.48 | -2.52 | -2.33 | -2.08 | -2.42
CTTTCA | 1.08 | 0.891 | 0.902 | 1.15 | 0.729
AGTGTA | -2 | -0.275 | -1.64 | -1.93 | -1.75
TAGGCT | 0.252 | 0.541 | 0.328 | 0.207 | 0.472
TGTAAT | 0.665 | -0.061 | -0.101 | 0.466 | 0.962
GATTTT | 0.748 | 0.154 | 0.09 | 0.694 | 1.19

Sequence | 6-mer SELEX enrichment z-score [1] | 6-mer SELEX enrichment z-score [2] | 6-mer SELEX enrichment z-score [3] | 6-mer SELEX enrichment z-score [4] | 6-mer SELEX enrichment z-score [5]
CCCACA | -0.964 | 0.397 | -0.401 | -0.64 | -1.9
TTAAGG | 0.227 | -0.022 | -0.054 | 0.236 | 0.682
CTGGTT | -0.171 | 0.338 | -0.03 | -0.127 | -0.05
TGACAT | 0.657 | 0.108 | 0.454 | 0.514 | 0.665
TATCTG | 0.183 | 0.183 | -0.016 | 0.161 | 0.147
ACAGGT | 0.32 | 0.533 | 0.809 | 0.239 | 0.28
AGAACT | 0.177 | -0.805 | -0.557 | 0.154 | 0.44
GAATCG | -0.663 | -0.588 | -0.537 | -0.767 | -0.603
CTGATA | 0.482 | -0.414 | -0.195 | 0.506 | 0.569
GCCTCA | -0.89 | 0.187 | -0.043 | -0.806 | -0.954
AGATGA | 1.13 | -1.14 | -0.42 | 0.776 | 1.64
TTTAAC | 1.01 | -0.269 | -0.298 | 1.1 | 1.57
CTTAAA | -0.044 | -0.862 | -1.07 | -0.106 | 0.275
CATGAC | 0.769 | 0.97 | 0.888 | 0.673 | 0.295
TAGTTC | -0.137 | 0.501 | -0.014 | -0.105 | -0.034
ATGAAG | 1.14 | -0.868 | -0.209 | 0.59 | 1.5
AACTGT | 0.313 | -0.624 | -0.414 | 0.166 | 0.228
GCACAT | 2.48 | 1.57 | 2.96 | 2.1 | 2.12
GGGGGT | 0.519 | 0.371 | 0.433 | 0.996 | 0.788
TAGTGA | -0.134 | -0.073 | -0.408 | -0.307 | -0.005
TAACGT | -0.287 | -0.39 | -0.413 | -0.451 | -0.147
GGCTCC | 0.123 | 0.307 | 0.704 | 0.064 | -0.118
ACCCTT | -0.437 | -0.35 | -0.737 | -0.512 | -0.921
CTATAG | 0.484 | 0.034 | 0.053 | 0.433 | 0.572
ATGAGG | 1.17 | -0.191 | 0.422 | 0.868 | 1.38
GTAGAA | -0.804 | -0.559 | -0.903 | -0.858 | -0.488
CTCCCA | -0.506 | -0.306 | -0.686 | -0.385 | -1.05

Source: the supplement of paper PMC6531468
